Test results as given in patent US8367727B2, “Method of using abscisic acid to treat diseases and disorders” (priority 2006, dated 2013).

System: PPAR γ flfl; MMTV-Cre+ and PPAR γ flfl; MMTV-Cre- mice
Test: High-fat feeding of PPAR γ flfl; MMTV-Cre+ and MMTV-Cre- mice for 28 weeks
[1] = MMTV-Cre+ and MMTV-Cre-, 28 weeks
[2] = mice expressing PPAR γ in immune cells

SMILES: CC1=CC(=O)CC(C)(C)C1(O)/C=C/C(C)=C\C(=O)O (racemic) [ABA, abscisic acid]
- body weights [1]: did not increase body weights
- food intake [1]: did not effect food intake
- infiltration of F4/80hi into WAT (PPAR γ fl/fl, MMTV-Cre+ mice): abrogated the ability of ABA to suppress infiltration
- amount of F4/80hi macrophages (PPAR γ fl/fl, MMTV-Cre- mice): significantly decreased
- total SVF macrophage infiltration (PPAR γ fl/fl, MMTV-Cre- mice): significantly decreased
- normalization of blood glucose 90 minutes after intraperitoneal GTT (deficiency of PPAR γ in immune cells (MMTV-Cre+)): abrogated ABA-induced normalization of fasting blood glucose concentrations
- WAT MCP-1 levels [2]: decreased both WAT and plasma MCP-1 levels
- plasma MCP-1 levels [2]: decreased both WAT and plasma MCP-1 levels
- ability to suppress expression of MCP-1 in WAT (tissue-specific PPAR γ null mice): significantly impaired
